{
  "source": "PubChem BioAssay (NCI)",
  "tested_on": "NCI-H322M lung",
  "assay": "DTP human tumour cell line panel, 48 h",
  "note": "Several values for one entry are separate records, joined by “and”; a condition that tells them apart may be missing. Identical values can stand only once.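 Exposure lasted 48 hours, with cells grown in 96-well plates and compounds tested at five concentrations. GI50: concentration for 50% inhibition of growth. At the TGI there is no net growth.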",
  "data": [
    {"molecule": "COC(=O)CC(=O)OC", "values": [
      {"measurement": "TGI", "result": "> 100", "unit": "µM"}
    ]},
    {"molecule": "COC(=O)[C@]12CC[C@@H](C(=O)/C=C/c3cccnc3)[C@@H]1[C@H]1CC[C@@H]3[C@@]4(C)C/C(=C/c5cccnc5)C(=O)C(C)(C)[C@@H]4CC[C@@]3(C)[C@]1(C)CC2", "values": [
      {"measurement": "GI50", "result": 1.3, "unit": "µM"},
      {"measurement": "TGI", "result": 2.62, "unit": "µM"}
    ]},
    {"molecule": "N=C(N)CCNC(=O)C1CCC(N)=N1", "note": "(stereo unspecified)", "values": [
      {"measurement": "TGI", "result": "> 95.4", "unit": "µM"}
    ]},
    {"molecule": "C=C1C(C(O)C[C@H](C)C2O[C@@]3(CCCCO3)CCC2C)O[C@@H]2CCC3(CCC(/C=C/[C@@H](C)C4CC(C)=CC5(O4)O[C@H](C[C@](C)(O)C(=O)O)CCC5O)O3)OC2[C@@H]1O", "note": "(stereo partly specified)", "values": [
      {"measurement": "GI50", "result": 0.0152, "unit": "µM"},
      {"measurement": "TGI", "result": 0.0133, "unit": "µM"}
    ]},
    {"molecule": "Cc1ccc(S(=O)(=O)/N=C(\\NO)Nc2ccc(Cl)c(Cl)c2)cc1", "values": [
      {"measurement": "TGI", "result": 5.08, "unit": "µM"}
    ]},
    {"molecule": "CCOC(=O)c1c(SCCCN2CCCCC2)n(-c2ccccc2)c(=S)n(-c2ccccc2)c1=O", "values": [
      {"measurement": "TGI", "result": 33.4, "unit": "µM"}
    ]},
    {"molecule": "c1ccc([P+](c2ccccc2)(c2ccccc2)c2ccc([P+](c3ccccc3)(c3ccccc3)c3ccccc3)c3ccccc23)cc1", "values": [
      {"measurement": "TGI", "result": "> 100", "unit": "µM"}
    ]},
    {"molecule": "NC1(c2ccc(-c3nc4ccn5c(=O)[nH]nc5c4cc3-c3ccccc3)cc2)CCC1", "values": [
      {"measurement": "GI50", "result": "8.17 µM and > 10 µM and 9.04 µM"},
      {"measurement": "TGI", "result": "23.2 µM and > 10 µM and 22.6 µM"}
    ]},
    {"molecule": "COc1ccc(C=C2C(=O)NC(=S)NC2=O)c2ccccc12", "values": [
      {"measurement": "TGI", "result": "> 100", "unit": "µM"}
    ]},
    {"molecule": "NC(CCCNCc1ccccc1)C(=O)O", "note": "(stereo unspecified)", "values": [
      {"measurement": "TGI", "result": "> 100", "unit": "µM"}
    ]},
    {"molecule": "CN(C)CCn1c(=O)nc2c3c(c([N+](=O)[O-])ccc31)Nc1ccc(O)cc1-2", "values": [
      {"measurement": "TGI", "result": 21.2, "unit": "µM"}
    ]},
    {"molecule": "C1CCC(C(CC2CCCCN2)C2CCCCC2)CC1", "note": "(stereo unspecified)", "values": [
      {"measurement": "GI50", "result": 1.63, "unit": "µM"},
      {"measurement": "TGI", "result": 3.05, "unit": "µM"}
    ]},
    {"molecule": "O=C1c2ccccc2OCC1/C=N/O", "note": "(stereo unspecified)", "values": [
      {"measurement": "TGI", "result": "> 100", "unit": "µM"}
    ]},
    {"molecule": "CN(C)C(=S)/N=c1\\ss/c(=N\\C(=S)N(C)C)n1C1CCCCC1", "values": [
      {"measurement": "TGI", "result": "> 100", "unit": "µM"}
    ]},
    {"molecule": "C/C(=C\\C(=N\\N=C(N)N)c1ccc(Cl)cc1)c1ccc(Cl)cc1", "values": [
      {"measurement": "GI50", "result": 1.39, "unit": "µM"},
      {"measurement": "TGI", "result": 2.75, "unit": "µM"}
    ]},
    {"molecule": "O=C1CC2C=CC1C2CO", "note": "(stereo unspecified)", "values": [
      {"measurement": "TGI", "result": "> 100", "unit": "µM"}
    ]},
    {"molecule": "COc1ccc2[nH]c(Cl)c(/C=C3/C(=O)N(c4ccccc4)c4ccccc43)c2c1", "values": [
      {"measurement": "TGI", "result": 76.2, "unit": "µM"}
    ]},
    {"molecule": "C/C=C/CC(S(=O)(=O)c1ccccc1)S(=O)(=O)c1ccccc1", "values": [
      {"measurement": "TGI", "result": "> 100", "unit": "µM"}
    ]},
    {"molecule": "CN1CCN(Cc2ccc(NC(=O)c3cncc(C#Cc4cnc5ccc(Cl)nn45)c3)cc2C(F)(F)F)CC1", "values": [
      {"measurement": "GI50", "result": 1.27, "unit": "µM"},
      {"measurement": "TGI", "result": 3.23, "unit": "µM"}
    ]},
    {"molecule": "Cc1nc2c(nc1C)C(=O)C1=C(C2=O)C2C=CC1CC2", "values": [
      {"measurement": "TGI", "result": 31.3, "unit": "µM"}
    ]},
    {"molecule": "Oc1ccc(Cl)cc1-c1cc(-c2ccc(Cl)cc2)n[nH]1", "values": [
      {"measurement": "GI50", "result": 2.72, "unit": "µM"},
      {"measurement": "TGI", "result": 41.7, "unit": "µM"}
    ]},
    {"molecule": "O=C1CCN(CCC(F)(F)C(F)(F)C(F)(F)C(F)(F)C(F)(F)C(F)(F)F)C(=S)N1CCC(F)(F)C(F)(F)C(F)(F)C(F)(F)C(F)(F)C(F)(F)F", "values": [
      {"measurement": "TGI", "result": "> 100", "unit": "µM"}
    ]},
    {"molecule": "CC(C)(C)c1cc(COc2c3sc(=S)sc3c(OCc3cc(C(C)(C)C)cc(C(C)(C)C)c3)c3sc(=S)sc23)cc(C(C)(C)C)c1", "values": [
      {"measurement": "TGI", "result": "> 100", "unit": "µM"}
    ]},
    {"molecule": "COC(=O)C12OCC34C(CC5C(C)=C(O)C(=O)CC5(C)C3C(O)C1O)OC(=O)C(OC(=O)C=C(C)C)C24", "note": "(stereo unspecified)", "values": [
      {"measurement": "GI50", "result": 0.449, "unit": "µM"}
    ]},
    {"molecule": "C=C1C(=O)O[C@H]2[C@H]1CC/C(COC(=O)NCc1c[nH]c3ccc(Br)cc13)=C\\CC[C@@]1(C)O[C@@H]21", "values": [
      {"measurement": "GI50", "result": 2.37, "unit": "µM"},
      {"measurement": "TGI", "result": 7.56, "unit": "µM"}
    ]},
    {"molecule": "CC/C=C/c1cc2c(c3[nH]ccc13)[C@@H](C)CC2C", "note": "(stereo partly specified) (tested in a mixture with another compound)", "values": [
      {"measurement": "TGI", "result": 32.2, "unit": "µM"}
    ]},
    {"molecule": "C=C(C)[C@@H]1CC[C@]2(C)[C@H](CC[C@@H]3[C@@H]([C@@](C)(O)CCC=C(C)C)CC[C@]32C)[C@@]1(C)CCC(=O)N1CCN(C)CC1", "values": [
      {"measurement": "GI50", "result": 12.6, "unit": "µM"},
      {"measurement": "TGI", "result": 25.3, "unit": "µM"}
    ]},
    {"molecule": "CC1CN=C(c2cccc(-c3ccc(-c4ccccc4)o3)c2)N1", "note": "(stereo unspecified)", "values": [
      {"measurement": "GI50", "result": 2.83, "unit": "µM"},
      {"measurement": "TGI", "result": 8.13, "unit": "µM"}
    ]},
    {"molecule": "FC(F)(F)c1ccc(C2=N/S(c3ccccc3)=N\\C(c3ccc(C(F)(F)F)cc3)=N/S(c3ccccc3)=N\\2)cc1", "note": "(stereo unspecified)", "values": [
      {"measurement": "TGI", "result": "> 100", "unit": "µM"}
    ]},
    {"molecule": "CCOC(=O)NC(C(F)(F)F)(C(F)(F)F)P(=O)(OCC(C)C)OCC(C)C", "values": [
      {"measurement": "TGI", "result": "> 100", "unit": "µM"}
    ]},
    {"molecule": "O=C1c2ccccc2C(=O)c2c1ccc(O)c2O", "values": [
      {"measurement": "TGI", "result": "> 100", "unit": "µM"}
    ]},
    {"molecule": "O=C(C1CC1)N1CC[C@@H](Cc2n[nH]c(=O)n2-c2ccc(-c3ccc4occc4c3)cc2)C1", "values": [
      {"measurement": "GI50", "result": 45, "unit": "µM"},
      {"measurement": "TGI", "result": "> 100", "unit": "µM"}
    ]},
    {"molecule": "CCCCCCCCCCCCCCCC[N+](C)(C)Cc1ccc(F)cc1", "values": [
      {"measurement": "TGI", "result": 37, "unit": "µM"}
    ]},
    {"molecule": "C=C(C)C12OC3(c4ccccc4)OC1C1C4OC4(CO)C(O)C4(O)C(=O)C(C)=CC4C1(O3)C(C)C2OC(=O)/C=C/C=C/c1ccccc1", "note": "(stereo unspecified)", "values": [
      {"measurement": "TGI", "result": 2.06, "unit": "µM"}
    ]},
    {"molecule": "c1ccc(-c2cccc(-c3ccccn3)n2)nc1", "values": [
      {"measurement": "GI50", "result": 0.0668, "unit": "µM"},
      {"measurement": "TGI", "result": "1.98 µM and 8.73 µM"}
    ]},
    {"molecule": "CC1(C)OC(CCC#N)CN1C(=O)OCc1ccccc1", "note": "(stereo unspecified)", "values": [
      {"measurement": "TGI", "result": "> 100", "unit": "µM"}
    ]},
    {"molecule": "O=C(O)CCC[C@]1(O)O[C@@]2(CCCC2=O)[C@]2(O)CCC[C@@]21O", "values": [
      {"measurement": "TGI", "result": "> 100", "unit": "µM"}
    ]},
    {"molecule": "CCN(CC)CCN1CCc2c([nH]c3ccccc23)C1c1cccnc1", "note": "(stereo unspecified)", "values": [
      {"measurement": "TGI", "result": "> 100", "unit": "µM"}
    ]},
    {"molecule": "COc1cc2c3c(c1OC)-c1ccccc1C(C(O)c1ccccc1)C3N(C)CC2", "note": "(stereo unspecified)", "values": [
      {"measurement": "TGI", "result": "> 100", "unit": "µM"}
    ]},
    {"molecule": "COc1cccc(-n2ncc3c(N/N=C/c4cccc(F)c4)ncnc32)c1", "values": [
      {"measurement": "GI50", "result": 15, "unit": "µM"},
      {"measurement": "TGI", "result": "> 25", "unit": "µM"}
    ]},
    {"molecule": "CN1C(=O)C23CC4(C56CC78SSC(CO)(C(=O)N7C5Nc5ccccc56)N(C)C8=O)c5ccccc5NC4N2C(=O)C1(CO)SS3", "note": "(stereo unspecified)", "values": [
      {"measurement": "GI50", "result": 0.136, "unit": "µM"},
      {"measurement": "TGI", "result": 0.43, "unit": "µM"}
    ]},
    {"molecule": "CNc1nc(N)cc(=O)[nH]1", "values": [
      {"measurement": "TGI", "result": "> 100", "unit": "µM"}
    ]}
  ]
}
